# Measurements taken from the supplement of paper PMC11417369.
# ± gives the standard deviation of the averaged measurements. The list shows a part of the results.
# Tested on: PfAP2-G AP2 domain (GST-tagged)
# Experiment: gcPBM binding intensity (ln(normalized median fluorescence intensity)); higher = stronger DNA binding
# Method in brief: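 Binding intensity values are the highest Masliner-normalised natural-log median intensity among replicate spots of either probe orientation. The binding step lasted 1 h in 1× PBS with 1% milk, 0.2 mg/ml BSA, 0.5% salmon testes DNA and 0.03% Triton X-100, using GST-tagged P. falciparum DNA-binding domains expressed in E. coli on an Agilent 4 × 180k array of primer-extended double-stranded 36-bp intergenic genomic probes plus negative controls. Alexa488 anti-GST antibody and a 488 nm scan detected bound protein.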
row,Sequence,gcPBM binding intensity (ln)
1,AACGCAGTTTAATATACACACCAAAAAAAAAAAAAG [CACACA_site5643],10.1 ± 0.31
2,TTTCCTTTTTTAATATGTACACATATTATTATATCT [XGTACX_site3079],11.4 ± 0.83
3,ATATATTCTTATTGCTGTACACATATTTTCTAAAAA [XGTACX_site4851],11.5 ± 0.95
4,TACTATGCCCCATATAAACACACAAATAAAAAGAAT [CACACA_site8857],10.2 ± 0.21
5,TATAAACCTACATACACACATACAATAAGTAAAATG [CACACA_site1921],10.2 ± 0.23
6,ATGTATCATAAGAACTGTGTGGTTACAGACACGAAC [GTGCAC_negctrl_site416],10.5 ± 0.25
7,AACTATATATATAATTCACACATGTTTTAAAATTTT [CACACA_site4971],10 ± 0.028
8,CTATGCATTTATAGTGCATGTAAAATATAAGATAAT [TGCATGCA_site71],9.88 ± 0.13
9,TATAATTAATTAGAAGTGCATTAGGTAACAACTGTC [GTGCAC_site9746],10.4 ± 0.3
10,TTATATTAAACAAACACACACATATATATATATATA [CACACA_site2382],10.2 ± 0.63
11,TTAACAAATGGACACACACACACACCCAAAAAAAAA [CACACA_site4443],11 ± 0.77
12,TTTATAAAAAATTTTTTTTTTTTTTTTTAAATATAT [CACACA_negctrl_site146],9.5 ± 0.3
13,TATATATATATTTATACACACATTAGTGTATCCATG [CACACA_site5609],10.2 ± 0.27
14,TGTTACATATTATAAATACATTAACTATTATATGTA [CACACA_negctrl_site1735],9.56 ± 0.26
15,TATATATATATATATTGTACATATTGTATATATTGT [XGTACX_site3212],10.8 ± 0.28
16,ATATATATATATATATGTACATATATATATTTTTTA [XGTACX_site5987],11.3 ± 0.66
17,TTGGCATACAGACACACACACACACGCCCACATATA [CACACA_site6425],10.6 ± 0.34
18,TTTTTTTTTTGTAGTTGTACGAACTAGCTATTTATG [XGTACX_site692],11.2 ± 0.76
19,TAATTACCATATGGTACACACATATATATATGTATA [CACACA_site3487],11.2 ± 0.79
20,TTATTTTTTCAAGAATGTACTTACGAATTGTCGTAT [XGTACX_site1363],11.1 ± 0.71
21,ATCAATACACATATATGTACATATAATAATTATCTT [XGTACX_site662],11.3 ± 0.76
22,CAAAAAAACAAACACACACACACACCCATATATATA [CACACA_site3653],9.93 ± 0.23
23,TTATAAATTATATATATGACCAATAATTGTGAGCAT [CACACA_negctrl_site725],10.9 ± 0.53

row,Sequence,gcPBM binding intensity (ln)
1,TGTTATTAAAACGTGACACACAATATATATATATAT [CACACA_site3539],10.2 ± 0.29
2,TTTTTTTTTAAGCAAAGGAAATCAAAATAAAAATAT [CACACA_negctrl_site719],10.1 ± 0.22
3,TTTTTTTTTTTTTTTTGTACACATAGTAAAAATTAA [XGTACX_site2410],11.2 ± 1
4,TTTTTTTTTTATTCTACACACATATGTTTTTATATG [CACACA_site182],9.98 ± 0.071
5,TATATATATATATGTTGTACTTTTAATTTAAATGTA [XGTACX_site4239],11.6 ± 0.94
6,GGATGATTAAGGGGGACACACGTTTATATATTTATA [CACACA_site4342],11.7 ± 0.9
7,AAATATATATATATAATACACACTAAAGTAACATAA [CACACA_site2870],9.945 ± 0.049
8,TGTCGACATGTAGGTAGTACTATTAAAAATAATGAT [XGTACX_site3849],11.6 ± 1.2
9,ATAGAAGGACATATAACACACATATATTATAAGTAT [CACACA_site5461],10.9 ± 0.64
10,ATTCAAAAGGTTTAATGTACGTGATGTTTCACAAAT [XGTACX_site784],11.1 ± 0.79
11,CATACTCTACATAGATGTACTCATTTAAAAAAAAAA [XGTACX_site6945],11.3 ± 0.98
12,ATTTTTTTTTTTTTTTTTTTTTTTTTCTCTCTCACT [CACACA_negctrl_site1046],9.73 ± 0.24
13,ATATATTATTATATATGTACTTATTTATAAATGATT [XGTACX_site7597],11.3 ± 0.77
14,AAATAGGGAATTTATGCACACAGTTAAGGGGGAAAA [CACACA_site2071],10.8 ± 0.47
15,AATAAATTAATAAGGTGTACATAAATAATTTATATA [XGTACX_site8278],11.5 ± 0.94
16,TAAATATAAACACAAACACACACATATATATATATA [CACACA_site7978],9.93 ± 0.12
17,AAAACGTATCACAAAAGTACAGATAGTTATAATATA [XGTACX_site185],11.4 ± 1
18,CGAAACCATATGTACACACACATATATAAATATGTA [CACACA_site7082],11.3 ± 0.88
19,TGATAGCTAGCTATATGTACATATATATATATATAT [XGTACX_site393],11.2 ± 0.73
20,CTTTCGGTTGGAGAGGTGCGCTTCTCCTTTATAATA,10 ± 0.33
21,AAACATCATAAATATACACACATATATATATATATA [CACACA_site620],10.1 ± 0.32
22,TACACAAAATTTAAATGTACATTAAATATATGATGT [XGTACX_site2140],11 ± 0.39
23,ATTTATCTATAATATACACACATATAACAGACATAT [CACACA_site6469],10.1 ± 0.14

row,Sequence,gcPBM binding intensity (ln)
1,AATGAAAATAAATTAACACACAATTTTAATATTGTT [CACACA_site1306],9.74
2,TTTATATTTCTCTTTAGTACATATTATATTCTTTTA [XGTACX_site1618],10.7 ± 0.42
3,AATTATTTACCTTCTTTGAAAGAACAAATGATACAA [CACACA_negctrl_site1315],10.1 ± 0.23
4,ATATATATATATATATGTACTTATAATTCTTCAATT [XGTACX_site5627],11.2 ± 0.87
5,GTATACTTAACATTCACACATATATATATATATAAA [CACACA_site4596],10.2 ± 0.46
6,ATATATCAACTCATATTATTTTCTTTTATTATTTAT [CACACA_negctrl_site276],9.69 ± 0.12
7,CTAAAACAATAAATCACACATACATAGGATAATATA [CACACA_site4247],9.92 ± 0.014
8,ATTTATAATCTGTATAGTACACATATATACATGGTT [XGTACX_site2714],11.1 ± 0.62
9,TATAAAAAATGATAAAGTACTTTATACACACAAATA [XGTACX_site8486],11.2 ± 0.73
10,AAAATATACACACATATGTATATAATATTATATGTA [GTGCAC_negctrl_site496],9.9
11,TCTTAAATATACAGTTGTACTAAACAAAAAAAAAAA [XGTACX_site2639],11.1 ± 0.83
12,ATTAATTTTCCATTCACACATATATATATATATATA [CACACA_site6065],10.1 ± 0.28
13,ATAGCATATATTTTTTGTACATATGTTATATATATA [XGTACX_site2184],10.9 ± 0.52
14,TACAAATATATATGCACACACATATCTGTATATGTG [CACACA_site5663],10.38 ± 0.035
15,TATATAAAACCTTATTGTACTATTAGACTATGCTTA [XGTACX_site6026],10.9 ± 0.61
16,CAAATATCTATTTAGTGTACTAATATATTCAATAAT [XGTACX_site2345],11.3 ± 0.82
17,ACAAAGACAATTTTGTTATATATAAAAAAAAAAAAT [CACACA_negctrl_site253],9.78 ± 0.099
18,AATTCTTTTTATATATTAAATATTATTAATAAGTCA [CACACA_negctrl_site1488],9.735 ± 0.035
19,ACACATTATAACAAGGTGCAATTTTTATACACATGT [GTGCAC_site9866],10.05 ± 0.035
20,ATGTAGATATATATCTGTACGTATATGTAAATATTA [XGTACX_site1516],11.5 ± 0.97
21,AAAAATTCTTGGCGCACACACTTTAAAAGTTAAAAA [CACACA_site6430],10.7 ± 0.54
22,GTATATTTCTTTAAATGTACACATTTTTTTAAAGAG [XGTACX_site1225],11.4 ± 0.98
23,AATTGTATAAATGGAATAATGACTATGATTATACAT [GTGCAC_negctrl_site188],9.97 ± 0.14

row,Sequence,gcPBM binding intensity (ln)
1,TATAAAAAATATCCTTTTTTTATACATCAATATATA [TGCATGCA_negctrl_site291],9.68 ± 0.014
2,CACTAATAGTGGATTACACACATATAGATGTATATA [CACACA_site7234],10.17 ± 0.042
3,GAAAAAAAAAAAAATACACACAAATTGGTATATAAC [CACACA_site6315],9.925 ± 0.035
4,GCTATAATAAAATTTAAACACACGTAATATAATATA [CACACA_site2592],10.1 ± 0.18
5,AAAATTTCATAAAGACGTACTATAAAAATAAAATTA [XGTACX_site4182],11.4 ± 0.98
6,AAAAAAAACAGACACACACACAAATATATAAAAATA [CACACA_site1172],10.1 ± 0.24
7,TTTTTGAAATAATGAAACAGCAAAAAAACAAAAATA [CACACA_negctrl_site221],10.3 ± 0.24
8,TATTAAAAGAAAATAACACACACAAAAAAAAAAAAA [CACACA_site8661],9.74 ± 0.24
9,AAAATAAGCGTGAAACGTACATATTACATTATTATA [XGTACX_site8914],11.1 ± 0.74
10,TCATTCTATCTGTTCACACATACACAAAAAAAAAAA [CACACA_site5141],10.4 ± 0.54
11,TATATACATGTGAGAGTGCATATAGACATAAAAAAT,10.3 ± 0.16
12,TTTTAAAATATCAACACACTCATTATTTTCTATATT [CACACA_site4740],9.7 ± 0.099
13,AAAATAAAAACAAAATCACACATTCCAGTTTTTTTT [CACACA_site5356],9.52 ± 0.35
14,ATATATTTTGTATGTAGTACAATTTTATAATCATAT [XGTACX_site8373],11.2 ± 0.78
15,TCAATTTGGAACGGTATGCACTAATTTTATATTTTT,9.975 ± 0.035
16,TATTACAAATATGGCACACATATATATATATATATT [CACACA_site3268],10.1 ± 0.19
17,AATAATGAATACACATGTACAAAAATTTTTCTTACT [XGTACX_site1962],10.9 ± 0.41
18,ATATACAGATAAATGTGTACTTAAATCTATTATATT [XGTACX_site2632],11.4 ± 0.83
19,AAGGTCATTTTATATTGTACATGAAATTGTTATGTA [XGTACX_site187],10.9 ± 0.57
20,AGAAGTAAAAAAATAGCACACACACTAATACCAACA [CACACA_site8354],10.5 ± 0.3
